Measured values as given in publication PMC6593535.
These are yes or no findings as the source states them, for the method shown. In cells and extracts the contact can be indirect. Some entries that bind do so weakly or less than the wild type. Tags and fused reporters may be left off the sequences shown.

Sequences of proteins named here, by UniProt entry; tags and fusion partners are left off.
UniProt P35637: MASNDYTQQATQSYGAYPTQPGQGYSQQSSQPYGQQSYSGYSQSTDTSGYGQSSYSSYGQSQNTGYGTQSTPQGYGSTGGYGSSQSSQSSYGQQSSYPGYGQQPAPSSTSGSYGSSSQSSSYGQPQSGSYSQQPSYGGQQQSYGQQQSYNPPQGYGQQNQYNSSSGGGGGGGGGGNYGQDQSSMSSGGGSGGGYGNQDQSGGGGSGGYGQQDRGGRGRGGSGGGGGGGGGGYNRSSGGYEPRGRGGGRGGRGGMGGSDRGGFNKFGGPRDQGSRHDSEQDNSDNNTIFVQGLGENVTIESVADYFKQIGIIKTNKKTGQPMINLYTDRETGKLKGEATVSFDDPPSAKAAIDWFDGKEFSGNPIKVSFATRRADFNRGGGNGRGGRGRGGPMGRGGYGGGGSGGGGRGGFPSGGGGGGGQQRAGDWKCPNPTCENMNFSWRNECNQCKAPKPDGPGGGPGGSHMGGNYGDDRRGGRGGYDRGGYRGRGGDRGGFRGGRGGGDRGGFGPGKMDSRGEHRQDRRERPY

Columns and labels:
Assay in all cases: co-IP; HEK293T co-expressing Flag-FUS and the indicated HA-AFF4 proteins; lysis in 0.15% Triton X-100, 20 mM Tris-HCl pH 7.6, 200 mM NaCl, 0.72 mM EDTA, 10% glycerol, 1 mM DTT; IP with anti-HA antibody overnight; western blot with anti-Flag
HA-AFF4 (1–300) (human) = target: T1, HA-AFF4 (1–300) (human) (UniProt Q9UHB7)
T1 sequence: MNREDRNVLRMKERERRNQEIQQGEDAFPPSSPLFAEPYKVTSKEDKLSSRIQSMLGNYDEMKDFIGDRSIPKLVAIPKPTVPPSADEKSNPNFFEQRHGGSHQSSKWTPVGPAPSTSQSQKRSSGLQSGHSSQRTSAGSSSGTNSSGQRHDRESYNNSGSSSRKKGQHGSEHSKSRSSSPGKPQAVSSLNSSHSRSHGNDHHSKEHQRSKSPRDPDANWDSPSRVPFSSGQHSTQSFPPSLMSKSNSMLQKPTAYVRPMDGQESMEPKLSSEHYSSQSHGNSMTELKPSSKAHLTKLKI

[1] = target: T2, full length HA-AFF4 (1–1163) (human) (UniProt Q9UHB7)
T2 sequence: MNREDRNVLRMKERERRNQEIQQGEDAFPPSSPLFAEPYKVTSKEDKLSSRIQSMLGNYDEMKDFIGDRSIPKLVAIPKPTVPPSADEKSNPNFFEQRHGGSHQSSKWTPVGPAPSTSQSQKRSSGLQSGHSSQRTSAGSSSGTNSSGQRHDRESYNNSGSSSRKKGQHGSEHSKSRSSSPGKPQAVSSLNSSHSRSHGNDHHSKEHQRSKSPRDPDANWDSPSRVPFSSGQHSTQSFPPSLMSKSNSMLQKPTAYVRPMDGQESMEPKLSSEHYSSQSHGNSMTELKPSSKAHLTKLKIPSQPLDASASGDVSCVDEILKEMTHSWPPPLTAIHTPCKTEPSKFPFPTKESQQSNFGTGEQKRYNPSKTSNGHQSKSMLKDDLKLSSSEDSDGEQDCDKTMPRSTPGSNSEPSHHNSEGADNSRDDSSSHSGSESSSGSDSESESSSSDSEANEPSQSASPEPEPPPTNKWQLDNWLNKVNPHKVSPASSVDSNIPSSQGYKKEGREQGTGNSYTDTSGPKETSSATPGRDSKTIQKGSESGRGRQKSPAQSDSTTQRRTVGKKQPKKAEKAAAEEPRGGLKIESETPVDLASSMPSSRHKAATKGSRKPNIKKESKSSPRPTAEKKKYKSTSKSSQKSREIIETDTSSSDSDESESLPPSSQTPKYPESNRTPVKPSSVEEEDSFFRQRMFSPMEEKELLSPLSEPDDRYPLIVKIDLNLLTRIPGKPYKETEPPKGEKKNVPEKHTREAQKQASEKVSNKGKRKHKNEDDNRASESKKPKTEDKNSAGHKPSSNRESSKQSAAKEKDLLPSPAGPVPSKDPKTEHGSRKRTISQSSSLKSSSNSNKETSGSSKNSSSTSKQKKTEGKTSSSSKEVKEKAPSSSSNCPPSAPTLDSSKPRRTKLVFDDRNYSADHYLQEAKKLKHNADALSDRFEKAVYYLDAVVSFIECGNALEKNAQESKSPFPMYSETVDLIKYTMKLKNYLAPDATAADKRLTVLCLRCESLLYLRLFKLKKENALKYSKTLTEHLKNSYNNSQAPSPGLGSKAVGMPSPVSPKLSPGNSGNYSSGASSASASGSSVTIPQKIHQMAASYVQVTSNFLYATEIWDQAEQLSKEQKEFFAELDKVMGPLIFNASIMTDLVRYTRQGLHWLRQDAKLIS

HA-AFF4 (1–650) (human) = target: T3, HA-AFF4 (1–650) (human) (UniProt Q9UHB7)
T3 sequence: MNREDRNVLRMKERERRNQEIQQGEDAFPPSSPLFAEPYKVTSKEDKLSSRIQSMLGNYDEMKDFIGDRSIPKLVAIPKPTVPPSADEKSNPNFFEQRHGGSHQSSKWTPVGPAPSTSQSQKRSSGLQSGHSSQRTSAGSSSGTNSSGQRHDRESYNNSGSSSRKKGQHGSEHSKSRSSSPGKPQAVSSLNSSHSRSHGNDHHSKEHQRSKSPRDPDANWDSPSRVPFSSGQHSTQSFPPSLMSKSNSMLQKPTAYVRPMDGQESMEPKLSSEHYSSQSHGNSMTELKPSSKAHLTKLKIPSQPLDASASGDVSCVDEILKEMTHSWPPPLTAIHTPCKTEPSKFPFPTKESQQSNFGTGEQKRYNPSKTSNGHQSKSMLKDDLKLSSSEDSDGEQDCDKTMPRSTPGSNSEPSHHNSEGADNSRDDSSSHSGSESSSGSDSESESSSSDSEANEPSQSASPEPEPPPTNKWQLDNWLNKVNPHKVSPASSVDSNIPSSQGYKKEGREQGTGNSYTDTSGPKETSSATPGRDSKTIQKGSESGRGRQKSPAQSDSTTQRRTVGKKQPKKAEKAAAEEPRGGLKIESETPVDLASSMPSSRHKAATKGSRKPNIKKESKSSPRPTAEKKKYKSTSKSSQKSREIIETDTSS

HA-AFF4 (1–400) (human) = target: T4, HA-AFF4 (1–400) (human) (UniProt Q9UHB7)
T4 sequence: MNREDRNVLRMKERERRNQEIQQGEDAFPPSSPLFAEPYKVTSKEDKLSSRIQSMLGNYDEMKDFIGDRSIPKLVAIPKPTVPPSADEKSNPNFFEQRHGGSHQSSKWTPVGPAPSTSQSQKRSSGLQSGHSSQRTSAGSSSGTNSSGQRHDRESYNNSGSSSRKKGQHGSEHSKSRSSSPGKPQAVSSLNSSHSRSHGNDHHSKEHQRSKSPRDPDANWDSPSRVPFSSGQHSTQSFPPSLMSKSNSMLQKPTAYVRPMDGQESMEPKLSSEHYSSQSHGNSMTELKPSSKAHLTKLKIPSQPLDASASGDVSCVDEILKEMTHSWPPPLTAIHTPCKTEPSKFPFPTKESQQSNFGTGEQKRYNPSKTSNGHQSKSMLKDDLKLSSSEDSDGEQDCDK

HA-AFF4 (1–850) (human) = target: T5, HA-AFF4 (1–850) (human) (UniProt Q9UHB7)
T5 sequence: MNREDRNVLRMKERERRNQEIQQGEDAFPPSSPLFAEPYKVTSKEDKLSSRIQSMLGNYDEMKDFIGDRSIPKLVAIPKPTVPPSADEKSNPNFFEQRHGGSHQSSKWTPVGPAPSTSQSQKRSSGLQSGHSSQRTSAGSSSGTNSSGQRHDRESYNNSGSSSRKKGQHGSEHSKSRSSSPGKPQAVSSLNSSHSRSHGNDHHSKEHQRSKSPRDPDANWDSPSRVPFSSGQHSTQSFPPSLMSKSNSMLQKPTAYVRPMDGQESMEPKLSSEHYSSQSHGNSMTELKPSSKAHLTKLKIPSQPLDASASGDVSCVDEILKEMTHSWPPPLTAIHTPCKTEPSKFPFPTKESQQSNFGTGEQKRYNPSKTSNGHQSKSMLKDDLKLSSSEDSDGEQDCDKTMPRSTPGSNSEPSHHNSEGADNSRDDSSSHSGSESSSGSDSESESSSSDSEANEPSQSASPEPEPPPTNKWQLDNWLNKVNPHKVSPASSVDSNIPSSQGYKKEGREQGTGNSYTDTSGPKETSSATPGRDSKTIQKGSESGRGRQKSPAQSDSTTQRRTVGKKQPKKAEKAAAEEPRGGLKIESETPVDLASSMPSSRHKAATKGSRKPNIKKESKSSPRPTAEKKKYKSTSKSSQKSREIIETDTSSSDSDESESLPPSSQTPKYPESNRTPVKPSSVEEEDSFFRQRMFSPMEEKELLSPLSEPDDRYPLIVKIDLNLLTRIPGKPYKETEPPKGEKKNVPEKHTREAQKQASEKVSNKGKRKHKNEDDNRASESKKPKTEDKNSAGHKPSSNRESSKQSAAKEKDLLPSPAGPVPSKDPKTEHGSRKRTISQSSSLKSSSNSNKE

binding (HA-AFF4 (1–300) (human)): no binding
binding [1]: binds
binding (HA-AFF4 (1–650) (human)): binds
binding (HA-AFF4 (1–400) (human)): binds
binding (HA-AFF4 (1–850) (human)): binds
Substance: Flag-FUS (from UniProt P35637 1-526)
